B1: CPEB3 Ribozyme (parent)
chain: UAACAGGGGGCCACAGCAGAAGCGUUCACGUCGCAGCCCCUGUCAGAUUCUGGUGAAUCUGCGAAUUCUGCUGUAUAUCUC

The source gives no read counts; variants with many changes may rest on few reads.

Variants of B1 are the subject of this data set. Kind of data set: self-cleavage, relative activity (ratio to wild type); higher = more cleavage; in vitro, sequencing. Summed up: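 Relative activity was defined as the cleaved/total read fraction for a variant divided by the same fraction for the unmutated ribozyme. CPEB3 self-cleaving ribozyme libraries were made by rounds of error-prone PCR, barcoded, and transcribed in vitro with T7 RNA polymerase for 5 hours at 37°C, and cleavage ran through transcription plus a 15 min DNase I step before EDTA. Illumina sequencing of template-switched reverse transcripts gave the reads, and DNA sequencing mapped the barcodes. Averages come from three batches, using variants with at least 5 reads.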
UAACAGGGGGCCACAGCAGAAGCGUUCACGUCGCAGCCCCUGUCAGAUUCUGGUGAAGCUGCGAAUCCUGCAGUAUAUCUC [U58G U67C U72A]: the self-cleavage worked out at 0.15.

As to UAACAGGGGGCCACAGCAGAAGCGUUCACGUCGCAGCCCCUGUCAGAUUCUGGUGAGUCUGCGAAUUCUGCUGUAUUUCCC [A57G A77U U80C], the self-cleavage was found to be 0.98.

Regarding UAACAGGGGGCCACAGCAGAAGCGUUCACGUCGCAGCCCCUGUCAGAUUCUGGUGAAUCCGCGAAUCCCGCUGUAUAUCUC [U60C U67C U69C], the self-cleavage was 0.34.

For UAACAGGGGGCCACAGCAGAAGCGUUCACGUCGCAGCCCCUGUCAGAUUCUGGUGAGUCAGCGAGUUCAGCUGUAUAUCCC [A57G U60A A65G U69A U80C], the self-cleavage came to 0.43.

In the case of UAACAGGGGGCCACAGCAGAAGCGUUCACGUCGCAGCCCCUGUCAGAUUCUGGUGAAUCAGCGAACUCUGCUGCGAAUCUC [U60A U66C U74C A75G U76A], the self-cleavage is 0.22.

For UAACAGGGGGCCACAGCAGAAGCGUUCACGUCGCAGCCCCUGUCAGAUUCUGGUGAAUCCGCGUAUUCUGCCGUAUAUCUC [U60C A64U U72C], the self-cleavage is 0.3.

Take UAACAGGGGGCCACAGCAGAAGCGUUCACGUCGCAGCCCCUGUCAGAUUCUGGUGAGUCUGCGAAAUCUGCUGUAUAUCAC [A57G U66A U80A]: the self-cleavage worked out at 0.29.

In the case of UAACAGGGGGCCACAGCAGAAGCGUUCACGUCGCAGCCCCUGUCAGAUUCUGGUGAAACUGCGAAUUCGGCUAUAUAUCUC [U58A U69G G73A], the self-cleavage was 0.39.

For the variant UAACAGGGGGCCACAGCAGAAGCGUUCACGUCGCAGCCCCUGUCAGAUUCUGGUGAAGCAGCGAAUUCUGCGAUAUAUCUC [U58G U60A U72G G73A], the self-cleavage stood at 0.21.

For UAACAGGGGGCCACAGCAGAAGCGUUCACGUCGCAGCCCCUGUCAGAUUCUGGUGAACCUGCGAAUUCUGCCGUAAAUCUC [U58C U72C U76A], the self-cleavage was 0.79.

Consider UAACAGGGGGCCACAGCAGAAGCGUUCACGUCGCAGCCCCUGUCAGAUUCUGGUGAGUCUGAGAAUUCUGCUGUAUAUCCC [A57G C62A U80C], for which the self-cleavage came out at 0.36.

In the case of UAACAGGGGGCCACAGCAGAAGCGUUCACGUCGCAGCCCCUGUCAGAUUCUGGUGAGCCUGCGAAUUCUGCUGUAUACCUC [A57G U58C U78C], the self-cleavage was 0.23.

Regarding UAACAGGGGGCCACAGCAGAAGCGUUCACGUCGCAGCCCCUGUCAGAUUCUGGUGAAACUGUGAAUUCUGCCGUAUAUCUC [U58A C62U U72C], the self-cleavage worked out at 0.24.

In the case of UAACAGGGGGCCACAGCAGAAGCGUUCACGUCGCAGCCCCUGUCAGAUUCUGGUGAACCUGCGAAUUCUGCGGUAUAUCCC [U58C U72G U80C], the self-cleavage came to 1.09.

Turning to UAACAGGGGGCCACAGCAGAAGCGUUCACGUCGCAGCCCCUGUCAGAUUCUGGUGAAUCCGCGAGCUCUGCUGUAUAUCUC [U60C A65G U66C], the self-cleavage turned out to be 0.14.

Consider UAACAGGGGGCCACAGCAGAAGCGUUCACGUCGCAGCCCCUGUCAGAUUCUGGUGAAUAAGCGAAUUCUGCUGUUUAUCUC [C59A U60A A75U], for which the self-cleavage is 0.33.

Take UAACAGGGGGCCACAGCAGAAGCGUUCACGUCGCAGCCCCUGUCAGAUUCUGGUGAAUCCGCGAAUACUGCAGUAUAUCUC [U60C U67A U72A]: the self-cleavage came to 0.3.

Regarding UAACAGGGGGCCACAGCAGAAGCGUUCACGUCGCAGCCCCUGUCAGAUUCUGGUGAAUCAGCGAAUACUGCUGUAUACCUC [U60A U67A U78C], the self-cleavage was 0.31.

Take UAACAGGGGGCCACAGCAGAAGCGUUCACGUCGCAGCCCCUGUCAGAUUCUGGUGAAUCCGCGACUUCUGCUGUAUAACUC [U60C A65C U78A]: the self-cleavage is 0.38.

As to UAACAGGGGGCCACAGCAGAAGCGUUCACGUCGCAGCCCCUGUCAGAUUCUGGUGAAUCCGCGAAAUCUGCUGUGUAUCUC [U60C U66A A75G], the self-cleavage was 0.17.

For UAACAGGGGGCCACAGCAGAAGCGUUCACGUCGCAGCCCCUGUCAGAUUCUGGUGAAACUGCGAAUACUGCUGUAUAUCAC [U58A U67A U80A], the self-cleavage stood at 0.5.

On to UAACAGGGGGCCACAGCAGAAGCGUUCACGUCGCAGCCCCUGUCAGAUUCUGGUGAAUCCGCGAAUCCUGCUGUAUAUAUC [U60C U67C C79A], for which the self-cleavage was determined as 0.33.

Regarding UAACAGGGGGCCACAGCAGAAGCGUUCACGUCGCAGCCCCUGUCAGAUUCUGGUGAUUCUCCGAAUCCUGCUGUAUGUCUC [A57U G61C U67C A77G], the self-cleavage was determined as 0.12.

For UAACAGGGGGCCACAGCAGAAGCGUUCACGUCGCAGCCCCUGUCAGAUUCUGGUGAAUCCGCGAAUUCUGCUGAAUCUCUC [U60C U74A A77C], the self-cleavage was 0.79.

Take UAACAGGGGGCCACAGCAGAAGCGUUCACGUCGCAGCCCCUGUCAGAUUCUGGUGAAUCCGCGAAUUCUGCUGUAUACCCC [U60C U78C U80C]: the self-cleavage is 0.44.

For UAACAGGGGGCCACAGCAGAAGCGUUCACGUCGCAGCCCCUGUCAGAUUCUGGUGAAACUGCGAAUUCUGCCGUAUACCUC [U58A U72C U78C], the self-cleavage is 0.45.

Consider UAACAGGGGGCCACAGCAGAAGCGUUCACGUCGCAGCCCCUGUCAGAUUCUGGUGAAUCAGCGAAUUCUGCCGUAAAUCUC [U60A U72C U76A], for which the self-cleavage is 0.5.

Regarding UAACAGGGGGCCACAGCAGAAGCGUUCACGUCGCAGCCCCUGUCAGAUUCUGGUGAAUCAGCGAAUUCUGCCAUAUAUCUC [U60A U72C G73A], the self-cleavage worked out at 1.07.

Take UAACAGGGGGCCACAGCAGAAGCGUUCACGUCGCAGCCCCUGUCAGAUUCUGGUGAGUCUGCGAAUUCUGGUGUAUAUCAC [A57G C71G U80A]: the self-cleavage amounted to 0.16.

Take UAACAGGGGGCCACAGCAGAAGCGUUCACGUCGCAGCCCCUGUCAGAUUCUGGUGAAUAUGCGAAUUCUGCUGUAUUUCCC [C59A A77U U80C]: the self-cleavage worked out at 0.32.

Turning to UAACAGGGGGCCACAGCAGAAGCGUUCACGUCGCAGCCCCUGUCAGAUUCUGGUGAAUCCGCGAAUUAUGCUGUUUAUCUC [U60C C68A A75U], the self-cleavage turned out to be 0.19.

UAACAGGGGGCCACAGCAGAAGCGUUCACGUCGCAGCCCCUGUCAGAUUCUGGUGAGUCUGCGAAUUCUGCCGUAUAUAUC [A57G U72C C79A]: the self-cleavage is 1.13.

With UAACAGGGGGCCACAGCAGAAGCGUUCACGUCGCAGCCCCUGUCAGAUUCUGGUGAGUCUGCGUAUCCUGCUGUAUAUCUC [A57G A64U U67C], the self-cleavage is 0.41.

As for UAACAGGGGGCCACAGCAGAAGCGUUCACGUCGCAGCCCCUGUCAGAUUCUGGUGAACCUGCGUAUUCAGCUGUAUACCUC [U58C A64U U69A U78C], the self-cleavage was found to be 0.13.

The record behind these values is the RNAGym collection of RNA variant scans (doi:10.1093/nar/gkz1192).
